This note sets out measurements from publication PMC12434519 (ACS Medicinal Chemistry Letters, 2025).

Like-named read-outs stand apart in the source and are kept apart here.

Usually IC50 stands for the midpoint of a concentration-inhibition curve.

For this test, the target named is SARS-CoV-2 NSP14 (Severe acute respiratory syndrome coronavirus 2, UniProt P0DTD1). Nature of the test: biochemical.
Setting [1] is: Hill slope of the concentration-response fit.
[2] abbreviates: maximum response, LUM % inhibition, read-out: SARS-CoV-2 NSP14 inhibition: Maximum response (%).
Setting [3] is: read-out: SARS-CoV-2 NSP14 inhibition: IC50.
Where [4] appears, read: LUM % inhibition, read-out: SARS-CoV-2 NSP14 inhibition: IC50.
The mark [5] stands for this setting: LUM % inhibition, read-out: SARS-CoV-2 NSP14 inhibition: Maximum response.
The mark [6] stands for this setting: fit of concentration-response curve.
The mark [7] stands for this setting: TDI-015051 series, retrospective VS set, biochemical MTase assay, read-out: Merged IC50.

On to `CCCS(=O)(=O)N1CCCc2ccc(NS(=O)(=O)c3ccc(NC(=O)CC)cc3C)cc21` [RU-0833865], for which, under setting [1], the “SARS-CoV-2 NSP14 inhibition: Hill slope” value was 14. Besides, under setting [2], the Emax was 21.8%. Further, under setting [3], the IC50 was over 125 µM.
Turning to `Cc1c(F)cccc1C(=O)NC1CCC(CCNC(=O)c2ncn3ccccc23)C1` (stereo not shown) [RU-0834123], the IC50 under setting [4] was over 125 µM. Moreover, the Emax under setting [5] is 9.59%. The “SARS-CoV-2 NSP14 inhibition: Hill slope” value under setting [6] stood at 56.9.
For `CN(C1CCCCC1)S(=O)(=O)c1cccc(C(=O)NCc2cn3ccccc3n2)c1` [RU-0833871], under setting [1], the “SARS-CoV-2 NSP14 inhibition: Hill slope” value is 0.058. For the same molecule, the Emax under setting [2] is 18%. Further, under setting [3], the IC50 is over 125 µM.
On to `O=C(NCc1ccc(CNC(=O)C2CCC(O)CC2)cc1)c1ccc(F)cc1Cl` (stereo not shown) [RU-0834122], for which, under setting [4], the IC50 was over 125 µM. For the same molecule, the Emax under setting [5] was determined as 35.5%. Also, the “SARS-CoV-2 NSP14 inhibition: Hill slope” value under setting [6] came out at 0.697.
Regarding `COc1cccc(NC(=O)COc2ccc(C(=O)NC(C)c3ccc(-n4ccnc4)cc3)cc2)c1` (stereo not shown) [RU-0833930], under setting [4], the 50% inhibitory concentration (IC50) was over 125 µM. Under setting [5], the Emax was determined as 8.07%. Further, the “SARS-CoV-2 NSP14 inhibition: Hill slope” value under setting [6] came to 14.2.
For `O=C(NCc1cccnc1N1CCCC1)c1cccc(S(=O)(=O)N2CCn3cccc3C2)c1` [TDI-014245, O=C(NCc1cccnc1N1CCCC1)c1cccc(S(=O)(=O)N2CCn3cccc3C2)c1], the IC50 under setting [7] worked out at 0.393 µM.
Regarding `COc1ccc(NS(=O)(=O)c2ccc(OC)c(NS(=O)(=O)c3ccc(C)cc3)c2)cc1` [RU-0833933], the IC50 under setting [4] was over 125 µM. Besides, under setting [5], the Emax stood at 11.4%. Moreover, the “SARS-CoV-2 NSP14 inhibition: Hill slope” value under setting [6] is recorded as 66.8.
On to `COc1ccc2nc([C@@H](C)NC(=O)c3cccc(CS(=O)(=O)c4ccccc4)c3)[nH]c2c1` [RU-0833636], for which the “SARS-CoV-2 NSP14 inhibition: Hill slope” value under setting [1] came to 1.22. Moreover, the Emax under setting [2] turned out to be 9.22%. Further, the IC50 under setting [3] is over 62.5 µM.
As to `Cc1ccc(F)c(C(=O)NCCc2ccc(CNC(=O)c3cnc4[nH]ncc4c3)cc2)c1F` [RU-0834096], the IC50 under setting [4] is 17.5 µM. Besides, the Emax under setting [5] is 35.2%. The “SARS-CoV-2 NSP14 inhibition: Hill slope” value under setting [6] was determined as 0.973.
With `O=C(CCCn1c(=O)oc2ccccc21)Nc1cccc(C(=O)N2CCOCC2)c1` [RU-0833657], the “SARS-CoV-2 NSP14 inhibition: Hill slope” value under setting [1] is listed as 89.6. Moreover, under setting [2], the Emax turned out to be 7.03%. Besides, the IC50 under setting [3] was over 62.5 µM.
`CCn1c(C(=O)NCc2cnn3ccccc23)cc(S(=O)(=O)N2CCc3ccccc3C2)c1C` [TDI-013662, CCn1c(C(=O)NCc2cnn3ccccc23)cc(S(=O)(=O)N2CCc3ccccc3C2)c1C]: the IC50 under setting [7] is 0.0802 µM.
Regarding `CC(NC(=O)c1cn(CCNC(=O)c2ccc(O)c(F)c2)cn1)c1ccccc1F` (stereo not shown) [RU-0834138], under setting [4], the IC50 is over 125 µM. In addition, the Emax under setting [5] came out at 9.69%. Also, under setting [6], the “SARS-CoV-2 NSP14 inhibition: Hill slope” value is reported as -376.
Take `C=CCOc1ccccc1CNC(=O)c1cc(S(=O)(=O)N2CCn3nccc3C2)c(C)n1CC=C` [TDI-014250, C=CCOc1ccccc1CNC(=O)c1cc(S(=O)(=O)N2CCn3nccc3C2)c(C)n1CC=C]: the IC50 under setting [7] came out at 0.175 µM.
Regarding `Cc1nn(C)c(C)c1CCNC(=O)CCn1nc2ccccn2c1=O` [RU-0833883], under setting [4], the IC50 was over 125 µM. Besides, under setting [5], the Emax worked out at 13.5%. Also, the “SARS-CoV-2 NSP14 inhibition: Hill slope” value under setting [6] came to 0.113.
As for `Cc1cc(C(=O)NC2CCC3(CC2)CC(NC(=O)c2cnn4ccn(C)c24)C3)cc(C)c1O` (stereo not shown) [RU-0834180], the IC50 under setting [4] is over 125 µM. The Emax under setting [5] is 14.1%. Further, under setting [6], the “SARS-CoV-2 NSP14 inhibition: Hill slope” value worked out at 12.9.
On to `Cc1c(S(=O)(=O)N2CCc3n[nH]cc3C2)cc(C(=O)NCc2cccc3occc23)n1C` [TDI-015608, Cc1c(S(=O)(=O)N2CCc3n[nH]cc3C2)cc(C(=O)NCc2cccc3occc23)n1C], for which the IC50 under setting [7] is 0.000481 µM.
With `O=C(NC1CCOc2ccccc21)c1cccc(OCc2cn3ccccc3n2)c1` (stereo not shown) [RU-0833914], the IC50 under setting [4] is over 125 µM. Besides, under setting [5], the Emax was found to be 26.6%. The “SARS-CoV-2 NSP14 inhibition: Hill slope” value under setting [6] is 0.523.
In the case of `Cc1c(C(=O)NCc2cccc3cnn(C)c23)cn(S(=O)(=O)c2ccccc2)c1C` [TDI-015499, Cc1c(C(=O)NCc2cccc3cnn(C)c23)cn(S(=O)(=O)c2ccccc2)c1C], the IC50 under setting [7] worked out at 0.0392 µM.
On to `O=C(NCC1COC(CNC(=O)c2c(F)cc(O)cc2F)C1)c1ccn2nccc2c1` (stereo not shown) [RU-0834187], for which the IC50 under setting [4] was over 125 µM. Besides, under setting [5], the Emax is 12.6%. Besides, the “SARS-CoV-2 NSP14 inhibition: Hill slope” value under setting [6] is on record as 15.3.
Consider `CN(C)S(=O)(=O)c1cccc(NC(=O)CCCn2c(=O)oc3ccccc32)c1` [RU-0833648], for which, under setting [1], the “SARS-CoV-2 NSP14 inhibition: Hill slope” value was 11.8. In addition, under setting [2], the Emax is 0.276%. Further, the IC50 under setting [3] was over 62.5 µM.
In the case of `Cn1cc(N2CC(C(=O)NCCc3noc4ccccc34)CC2=O)cn1` (stereo not shown) [RU-0833925], the IC50 under setting [4] was over 125 µM. Further, under setting [5], the Emax worked out at 19.2%. Further, the “SARS-CoV-2 NSP14 inhibition: Hill slope” value under setting [6] is on record as 1.26.
As for `CC(NC(=O)c1cnc2[nH]ncc2c1)C1CC(NC(=O)c2c(F)cc(O)cc2F)C1` (stereo not shown) [RU-0834147], the IC50 under setting [4] is over 125 µM. Moreover, the Emax under setting [5] amounted to 14.6%. For the same molecule, the “SARS-CoV-2 NSP14 inhibition: Hill slope” value under setting [6] turned out to be 47.7.
The corresponding values for `O=C(NCc1ccc(C(=O)NC2CCCn3cnnc32)cc1)c1ccc2nccn2c1` (stereo not shown) [RU-0834142] are over 125 µM, 9.71% and 10.6.
In the case of `Cc1cc(C(=O)NCCC2CCC(NC(=O)c3cccn4ccnc34)C2)ccc1O` (stereo not shown) [RU-0834124], under setting [4], the IC50 is 12.9 µM. For the same molecule, the Emax under setting [5] is 30.7%. Also, under setting [6], the “SARS-CoV-2 NSP14 inhibition: Hill slope” value was 1.
`COC(CCNC(=O)c1cccc(N(C)C)c1)CNC(=O)c1cc(C)c(O)c(C)c1` (stereo not shown) [RU-0834140]: the IC50 under setting [4] was determined as 16.3 µM. For the same molecule, the Emax under setting [5] is 38.1%. The “SARS-CoV-2 NSP14 inhibition: Hill slope” value under setting [6] amounted to 1.08.
Turning to `C[C@H](NCc1nc(CNC(=O)c2ccccc2)no1)c1ccc(Cl)cc1Cl` [RU-0833649], the “SARS-CoV-2 NSP14 inhibition: Hill slope” value under setting [1] was 17.4. Moreover, the Emax under setting [2] came to 4.68%. The IC50 under setting [3] was over 62.5 µM.
On to `Cc1cc(C(=O)N2CC3(CCC(CNC(=O)C4CCCn5nccc54)O3)C2)cc(C)c1O` (stereo not shown) [RU-0834192], for which the IC50 under setting [4] was over 125 µM. Also, the Emax under setting [5] worked out at 14.6%. Under setting [6], the “SARS-CoV-2 NSP14 inhibition: Hill slope” value is 16.3.
As for `CCc1ccc(C)c(C(=O)NCC2COC(CNC(=O)c3cc(C)c4[nH]ncc4c3)C2)c1` (stereo not shown) [RU-0834100], the IC50 under setting [4] is over 125 µM. Also, the Emax under setting [5] worked out at 15.4%. Under setting [6], the “SARS-CoV-2 NSP14 inhibition: Hill slope” value amounted to 1.18.
The corresponding values for `CCn1cc(Cl)c(C(=O)NCc2ccc(CNC(=O)c3ccc4[nH]ncc4c3)cc2)n1` [RU-0834111] are 77 µM, 49% and 0.488.
For the molecule `CN=S(=O)(c1cc(Cl)c2[nH]ncc2c1)c1cc(C(=O)NCc2c(F)ccc3c2N(C)C(=O)C3)n(C)c1C` (stereo not shown) [TDI-016654, CN=S(=O)(c1cc(Cl)c2[nH]ncc2c1)c1cc(C(=O)NCc2c(F)ccc3c2N(C)C(=O)C3)n(C)c1C], the IC50 under setting [7] is 0.000651 µM.
In the case of `C[C@H](NC(=O)c1cccc(N2CCCC2=O)c1)c1nnc2ccccn12` [RU-0833631], the “SARS-CoV-2 NSP14 inhibition: Hill slope” value under setting [1] is 1.2. For the same molecule, the Emax under setting [2] is 5.75%. Moreover, the IC50 under setting [3] is over 62.5 µM.
For the molecule `Cc1cc(C(=O)NC[C@@H]2[C@H](CNC(=O)Cc3ccc4c(c3)CC4)C2(F)F)cc(C)c1O` [RU-0834163], the IC50 under setting [4] was over 125 µM. Under setting [5], the Emax was 34.8%. Moreover, the “SARS-CoV-2 NSP14 inhibition: Hill slope” value under setting [6] is given as 0.497.
`CCn1c(C(=O)NCc2ccccc2C)cc(S(=O)(=O)N2CCC(C)CC2)c1C` [TDI-013343, CCn1c(C(=O)NCc2ccccc2C)cc(S(=O)(=O)N2CCC(C)CC2)c1C]: under setting [7], the IC50 was 0.262 µM.
For the molecule `O=C(Cc1c(F)cccc1F)NCC1CN(C(=O)c2cc3ccccn3c2)C1` [RU-0833922], the IC50 under setting [4] amounted to 50.3 µM. Under setting [5], the Emax was found to be 76.9%. The “SARS-CoV-2 NSP14 inhibition: Hill slope” value under setting [6] is on record as 1.19.
For `CNc1ccc(C(=O)NCc2ccc(CNC(=O)c3nccn4cnnc34)cc2)cc1F` [RU-0834185], the IC50 under setting [4] stood at 35 µM. Moreover, the Emax under setting [5] worked out at 66.7%. Moreover, the “SARS-CoV-2 NSP14 inhibition: Hill slope” value under setting [6] stood at 1.91.
The corresponding values for `O=C(NCc1cccc(C(=O)N2CCCCC2)c1)c1nccc2ccccc12` [RU-0833894] are over 125 µM, 5.92% and 14.4.
On to `Cc1cc(C(=O)NCc2ccc(C(=O)NCCC3CCN(C)C3=O)cc2)ccc1O` (stereo not shown) [RU-0834134], for which the IC50 under setting [4] is over 125 µM. Moreover, the Emax under setting [5] turned out to be 32.8%. Moreover, the “SARS-CoV-2 NSP14 inhibition: Hill slope” value under setting [6] came out at 0.491.
For `Cc1ccc(NC(=O)CN2C(=O)COc3ccc(S(=O)(=O)N4CCC(C)CC4)cc32)c(Cl)c1` [RU-0833887], under setting [4], the IC50 was over 125 µM. Also, the Emax under setting [5] came to 14.8%. In addition, under setting [6], the “SARS-CoV-2 NSP14 inhibition: Hill slope” value came out at 9.82.
The corresponding values for `Cc1cc(C(=O)NCC2(C)CCC(NC(=O)c3cnn4ccccc34)C2)ccc1O` (stereo not shown) [RU-0834129] are over 125 µM, 10.5% and 375.
With `O=C(CC[C@H]1CC[C@@H](NC(=O)c2ccc3[nH]ncc3c2)C1)NCc1ncc(F)cc1F` [RU-0834161], the IC50 under setting [4] was over 125 µM. The Emax under setting [5] is 27.1%. In addition, under setting [6], the “SARS-CoV-2 NSP14 inhibition: Hill slope” value came out at 1.35.
On to `CCc1nnc(-c2cccc(NC(=O)CCn3c(=O)n(C)c4ccccc43)c2)o1` [RU-0833629], for which the “SARS-CoV-2 NSP14 inhibition: Hill slope” value under setting [1] was 20.1. Moreover, the Emax under setting [2] was -0.0216%. The IC50 under setting [3] is over 62.5 µM.
On to `COc1ccc(CCNC(=O)c2cccc(S(=O)(=O)Nc3ccccc3F)c2)cc1OC` [RU-0833651], for which the “SARS-CoV-2 NSP14 inhibition: Hill slope” value under setting [1] came out at 12.2. For the same molecule, the Emax under setting [2] amounted to 0.99%. Besides, the IC50 under setting [3] was over 62.5 µM.
